Data published in PubChem BioAssay AID1476 (National Center for Advancing Translational Sciences (NCATS), 2009).
About 4,500 (2.2%) of roughly 200,000 compounds were called active. The shares of active, inactive and inconclusive entries below differ from those in the screen. Calls follow the shape of the dose curve; as a rule, active = well fitted inhibition curve with a large enough effect; inconclusive = small, poorly fitted or top-dose-only effect, or effect the other way; inactive = flat fitted curve, though single readings scatter. Potencies beside an inconclusive call are fits to weak or partial responses and may not hold up.

biological target: Cruzipain (Trypanosoma cruzi) (UniProt P25779); experiment: qHTS Assay for Promiscuous and Specific Inhibitors of Cruzain (without detergent); conditions: purified cruzain, Z-FR-AMC fluorescence, no detergent; also: nearly all actives have a fitted effect of over 40% in size;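 as to max response, negative = inhibition: plate controls were enzyme without inhibitor for no effect and buffer without enzyme for full effect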
UniProt P25779, sequence (P25779 whole entry, looked up): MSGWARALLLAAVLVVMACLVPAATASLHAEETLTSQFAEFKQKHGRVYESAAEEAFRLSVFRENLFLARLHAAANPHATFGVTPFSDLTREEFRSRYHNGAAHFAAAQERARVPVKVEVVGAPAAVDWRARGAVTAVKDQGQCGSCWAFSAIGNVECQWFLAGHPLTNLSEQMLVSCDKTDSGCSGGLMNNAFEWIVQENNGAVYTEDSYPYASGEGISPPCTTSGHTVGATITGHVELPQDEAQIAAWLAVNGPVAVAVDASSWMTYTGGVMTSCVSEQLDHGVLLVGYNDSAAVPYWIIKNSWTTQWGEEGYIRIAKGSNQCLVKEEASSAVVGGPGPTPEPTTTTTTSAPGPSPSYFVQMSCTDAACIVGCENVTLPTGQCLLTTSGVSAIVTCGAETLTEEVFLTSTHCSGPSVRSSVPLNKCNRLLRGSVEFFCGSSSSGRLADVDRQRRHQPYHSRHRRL
Procedure, shortened: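 Purified cruzain at 1.5 nM, pre-incubated 15 min with compound at room temperature in 100 mM sodium acetate pH 5.5, 5 mM DTT, 0.00005% Triton X-100. Reaction started with 2 uM Z-FR-AMC; AMC fluorescence increase over 60 s gives rate.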
Potency is read from the fitted curve at half-maximal effect; tags tell the direction and shape of the fitted curve.

SMILES	Potency	max response, negative = inhibition
Cc1ccc(-n2nc(-c3ccccc3)cc2Nc2ccccc2N)cc1	inconclusive: 31.6 µM [inhibitor, single point]	–
COc1ccccc1C1c2c(-c3ccc(Cl)cc3)n[nH]c2C(=O)N1c1ccc(C)cc1 (stereo unspecified)	inconclusive: 39.8 µM [inhibitor, single point]	–
COc1ccc2c(C)nc(Nc3nc(C)c(C)c(=O)[nH]3)nc2c1	inconclusive: 39.8 µM [activator, single point]	–
CCCCCn1c(=O)[nH]c2cc(C(=O)Nc3ccc(F)c(F)c3)ccc2c1=O	inconclusive: 5.01 µM [inhibitor, single point]	–
N#Cc1ccc(-c2cccs2)nc1SCC(=O)Nc1cccc(C(F)(F)F)c1	active: 20 µM	–
Cc1cccc(NC(=O)C2CCCN(S(=O)(=O)c3ccc(Br)s3)C2)c1 (stereo unspecified)	inconclusive: 39.8 µM [inhibitor, single point]	–
Cc1nn2c(=O)cc(COC(=O)COc3ccc(F)cc3)nc2s1	–	inactive: -1.51%
Cc1ccc(S(=O)(=O)O[C@@H]2[C@H]([C@@H]3COC(C)(C)O3)O[C@H]3OC(C)(C)O[C@@H]32)cc1	–	inactive: 3.33%
CCNc1ncc2nc(-c3cn(C)c4ccccc34)c(=O)n(Cc3cccc(OC)c3)c2n1	–	inactive: -20.5%
CCCOC(=O)CSc1nnc(-c2ccccc2Cl)o1	–	inactive: 0.607%
Cc1ccc(C2=NC(c3ccccc3)=Nc3ccc(Cl)cc3N2)cc1	inconclusive: 25.1 µM [inhibitor, single point]	–
CCOC(=O)Nc1cc(OC)c(OC)cc1Cc1nccc2cc(OC)c(OC)cc12	–	inactive: -10.9%
O=C(OCC(=O)N1CCc2ccccc2C1)c1ccc(N2CCOCC2)c([N+](=O)[O-])c1	–	inactive: 4.54%
COc1ccc(CNC(=O)c2ccc3nc(C(C)C)oc3c2)cc1OC	–	inactive: 5.17%
Cc1cc(C)nc(Nc2n[nH]c(Cc3ccccc3)n2)n1	inconclusive: 25.1 µM [inhibitor, single point]	–
COc1cccc(C(=O)N2CCN(Cc3cc(Br)ccc3OC)CC2)c1	–	inactive: 2.56%
Cc1ccc(OCC(=O)Nc2ccc3nc(SCCOc4ccccc4)sc3c2)cc1	–	inactive: -0.867%
Cc1ccc(NS(=O)(=O)c2cccc(C(=O)N/N=C/c3ccc4c(c3)OCCO4)c2)c(C)c1	active: 6.31 µM	–
COc1ccccc1C(=O)NC(=Nc1nc2ccccc2o1)NC(=O)c1ccccc1OC	inconclusive: 15.8 µM [activator, partial curve]	–
Cc1[nH]c2ccccc2c1/C=C/c1nc2ccccc2c(=O)n1-c1ccc([N+](=O)[O-])cc1	active: 25.1 µM	–
COc1ccc(-c2nnc3ccc(SCC(=O)Nc4nc5ccc(C)cc5s4)nn23)cc1OC	inconclusive: 39.8 µM [activator, single point]	–
O=S(=O)(Nc1ccc(F)cc1F)c1ccc(-n2cccn2)cc1	–	inactive: -3.62%

SMILES	Potency	max response, negative = inhibition
CCN1C(=O)CC(N2CCN(c3ccc(C(=O)c4ccccc4)cc3)CC2)C1=O (stereo unspecified)	inconclusive: 31.6 µM [activator, single point]	–
COc1cccc(NC(=O)c2oc3ccccc3c2NC(=O)c2cc3ccccc3o2)c1	inconclusive: 0.0631 µM [activator, full curve, poor fit]	–
CCC(C)NC(=O)CSc1nc2cc3c(cc2c(=O)n1Cc1ccc(C(=O)NCCc2ccc(OC)c(OC)c2)cc1)OCO3 (stereo unspecified)	–	inactive: 11.8%
COc1ccc(CNn2c(-c3cccc(C)c3)nc3ccccc3c2=O)cc1OC	inconclusive: 39.8 µM [activator, single point]	–
O=C(Nc1cccc(C(F)(F)F)c1)c1ccc2snnc2c1	–	inactive: -11.5%
CC(=O)c1ccc(NC(=O)Cn2c(=O)nc(-c3ccccc3)c3cc(Cl)ccc32)cc1	–	inactive: 0.78%
CCc1ccc(NC(=O)Nc2nnc(N(C)C3CCCCC3)s2)cc1	inconclusive: 39.8 µM [activator, single point]	–
Cc1cccc(C(=O)Nc2ccc(S(=O)(=O)N(Cc3ccccc3)c3ccccc3)cc2)c1	inconclusive: 15.8 µM [inhibitor, single point]	–
Cc1ccc(-n2c(/C=C/c3ccc4c(c3)OCO4)nc3ccccc3c2=O)cc1	inconclusive: 31.6 µM [inhibitor, single point]	–
CC(C)C[C@@H](CC(=O)N[C@H](CC(=O)N[C@@H]1CCCC[C@H]1C(=O)N[C@H](CC(=O)N[C@@H](CCC(=O)O)CC(=O)O)CC(C)C)C(C)C)NC(=O)[C@@H]1CNCC[C@H]1N	–	inactive: 10.8%
CCN(CC)c1ccc2cc(-c3nc(-c4ccccc4F)no3)c(=O)oc2c1	–	inactive: -6.44%
Cc1cc(C)c(S(=O)(=O)Nc2ccc(-c3ccc(N4CCCCCC4)nn3)cc2)cc1C	inconclusive: 20 µM [inhibitor, single point]	–
O=C(Nc1cccc(Cl)c1)Nc1ccc2c(c1)OCO2	inconclusive: 31.6 µM [inhibitor, single point]	–
CCOC(=O)C1=C(C)OC(N)=C(C(=O)OCC)C12C(=O)Nc1ccc(Br)cc12 (stereo unspecified)	inconclusive: 31.6 µM [activator, single point]	–
COc1c(-c2coc3cc4c(cc3c2=O)CC(OC(C)=O)C(C)(C)O4)ccc2c1C=CC(C)(C)O2 (stereo unspecified)	inconclusive: 39.8 µM [activator, single point]	–
COc1ccccc1-n1cc(C(=O)NCC(=O)N2CCN(c3ccccc3)CC2)c2ccccc2c1=O	inconclusive: 39.8 µM [activator, single point]	–
Cc1ccc(Cl)cc1N1CCN(CCCNC(=O)C2COc3ccccc3C2)CC1 (stereo unspecified)	–	inactive: 16.5%
O=C1OC(/C=C/c2ccccc2)=NC/1=C/c1ccco1	active: 3.16 µM	–
COc1cccc(C2=NS(=O)(=O)N(C)C(C(=O)Nc3ccccc3SC)=C2)c1	active: 12.6 µM	–
CCOc1ccc(S(=O)(=O)NCCc2csc3nc(-c4ccc(F)cc4)nn23)cc1	–	inactive: 5.56%
CCN(CC)C(=O)c1ccc(NC(=O)CCn2nc(-c3ccc(C)cc3)c3ccccc3c2=O)cc1	inconclusive: 31.6 µM [activator, single point]	–
CCOC(=O)c1c(NC(=O)CN2CCOCC2)sc2c1CCCC2	inconclusive: 39.8 µM [activator, single point]	–

SMILES	Potency	max response, negative = inhibition
CC1CCC(NC(=O)c2ccc(CS(=O)(=O)c3cccc(C(F)(F)F)c3)o2)CC1 (stereo unspecified)	inconclusive: 20 µM [activator, partial curve]	–
Cc1sc2nc(SCC(=O)c3cccs3)n(Cc3ccco3)c(=O)c2c1C	inconclusive: 31.6 µM [inhibitor, single point]	–
COc1ccc(C(NC(=O)c2ccc(-c3ccccc3)cc2)c2ccccc2)cc1 (stereo unspecified)	active: 7.94 µM	–
CCOC(=O)c1ccc(Nc2c(-c3cccc(O)c3)nc3nc[nH]n23)cc1	–	inactive: -12.3%
CCCN(CCC)C(=O)CSc1nc2n[nH]c(C)c2c(=N)n1-c1ccc(OC)cc1	inconclusive: 31.6 µM [activator, single point]	–
CCCN(CCC)S(=O)(=O)c1ccc(C(=O)Nc2cccc(-c3nc4ccccc4[nH]3)c2)cc1	active: 7.94 µM	–
Nc1c(-c2nc(-c3ccccc3)no2)nnn1CC(=O)Nc1cccc(F)c1	active: 31.6 µM	–
Cc1cc(C)c2c(CC(=O)Nc3ccc(S(=O)(=O)N4CCCCC4)cc3)coc2c1	inconclusive: 31.6 µM [inhibitor, single point]	–
O=C(c1cc2ccccc2oc1=O)N1CCN(c2ccc(F)cc2)CC1	–	inactive: 0.68%
COc1cccc(-c2nn(C)c3sc(C(=O)NCc4ccco4)cc23)c1	inconclusive: 39.8 µM [activator, single point]	–
Cc1cc2c(N=NC(=O)C3CC3c3ccccc3)c(O)[nH]c2cc1Br (stereo unspecified)	inconclusive: 39.8 µM [inhibitor, single point]	–
Cc1cccc2cc(COC(=O)C3CCCO3)c(=O)[nH]c12 (stereo unspecified)	active: 1.58 µM	–
CCCCCCCCCc1ccc(OCCOCCOCCOCCOCCOCCOCCOCCOCCO)cc1	inconclusive: 10 µM [activator, single point]	–
Cc1cc(C)c2cc3c(N)c(C(=O)N4CCc5ccccc5C4)sc3nc2c1	inconclusive: 39.8 µM [inhibitor, single point]	–
Cc1nn(C)c(C)c1N1C(=O)c2cccc3c(Br)ccc(c23)C1=O	inconclusive: 39.8 µM [activator, single point]	–
CC(C)CCn1nnnc1C(c1ccc(N(C)C)cc1)N1CCN(C(=O)c2ccco2)CC1 (stereo unspecified)	inconclusive: 25.1 µM [activator, single point]	–
COc1cc(C(=S)N2CCC(C)CC2)ccc1O	inconclusive: 39.8 µM [inhibitor, single point]	–
O=C(Nc1ccc(F)cc1F)N1CCCCC1c1cccnc1 (stereo unspecified)	–	inactive: 0.296%
CCNC(=O)CSc1nnc(-c2cccc(S(=O)(=O)N(CC)CC)c2)n1CCc1ccccc1	inconclusive: 31.6 µM [activator, single point]	–
CCCCC(=O)N1CCCC(c2nc3c(nnn3Cc3cc(C)ccc3C)c(=O)[nH]2)C1 (stereo unspecified)	inconclusive: 39.8 µM [activator, single point]	–
Cc1ccc(Cc2nnc3n(-c4cccc(C)c4)nc(C(=O)c4ccccc4)n3c2=O)cc1	inconclusive: 31.6 µM [inhibitor, partial curve, poor fit]	–
CC(C)(C)C(=O)Nc1ccc2c(c1)-c1cc(NC(=O)C(C)(C)C)ccc1C2	inconclusive: 31.6 µM [inhibitor, single point]	–
